Data as given in publication PMC6919601, “Identification of Plasmodium dipeptidyl aminopeptidase allosteric inhibitors by high throughput screening” (PLoS ONE, 2019).
The whole screen tested about 110,000 compounds, of which about 230 (0.21%) showed an effect of 50% or more. Some of the results follow.

target: DPAP1 (Plasmodium falciparum, UniProt Q8IIJ9); assay: primary screen, percent inhibition; read by cleavage of a fluorogenic dipeptide substrate; higher = more effect of the substance; design: species or system P. falciparum D10 trophozoite lysates; single well
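Also: 30 min substrate incubation versus DMSO and 10 µM JCP410 controls.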

Sequence of DPAP1 (Q8IIJ9 whole entry, looked up): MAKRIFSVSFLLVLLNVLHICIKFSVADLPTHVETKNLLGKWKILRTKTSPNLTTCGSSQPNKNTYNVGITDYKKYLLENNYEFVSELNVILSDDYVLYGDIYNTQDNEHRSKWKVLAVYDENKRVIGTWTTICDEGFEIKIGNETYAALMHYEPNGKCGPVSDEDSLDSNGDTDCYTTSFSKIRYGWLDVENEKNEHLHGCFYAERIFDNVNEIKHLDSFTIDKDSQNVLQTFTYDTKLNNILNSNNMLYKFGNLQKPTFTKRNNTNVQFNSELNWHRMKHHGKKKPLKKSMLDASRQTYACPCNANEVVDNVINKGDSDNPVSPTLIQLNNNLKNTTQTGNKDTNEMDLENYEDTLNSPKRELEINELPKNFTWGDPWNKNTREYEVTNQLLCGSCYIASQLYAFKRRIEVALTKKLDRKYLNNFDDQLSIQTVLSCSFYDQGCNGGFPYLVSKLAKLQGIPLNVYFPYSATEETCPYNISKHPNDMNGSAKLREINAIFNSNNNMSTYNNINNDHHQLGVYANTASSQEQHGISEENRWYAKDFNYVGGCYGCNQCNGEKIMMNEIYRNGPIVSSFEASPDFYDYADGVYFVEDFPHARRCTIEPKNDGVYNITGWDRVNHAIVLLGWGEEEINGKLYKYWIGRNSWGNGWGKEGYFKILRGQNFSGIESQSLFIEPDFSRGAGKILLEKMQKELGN

In order of rising “% Inhibition @ 10 uM” value:
1. NC(=O)C1(N2CCCCC2)CCN(C2CC(=O)N(CC(c3ccccc3)c3ccccc3)C2=O)CC1 (stereo not shown)  -11.3%
2. O=C(COc1ccc(Cl)cc1)NCc1nnc(SC/C=C/c2ccccc2)o1  -9.23%
3. Cc1cc(-c2ccc(S(=O)(=O)NC3CCCc4ccccc43)cc2)on1 (stereo not shown)  -8.28%
4. O=C(CCCOc1ccc(Cl)cc1)NC1CCCCC1  -7.3%
5. CC(=O)Nc1ccc(NC(=O)COc2ccc(Br)cc2)cc1C  -7.1%
6. COc1cc(/C=C2/SC(=O)N(CC(=O)Nc3cccc(C)c3)C2=O)ccc1O  -7.02%
7. Cc1ccc(NC(=O)CN(CCc2ccccc2)S(C)(=O)=O)cc1  -6.65%
8. COc1cccc(CN2CCN(Cc3cccc(C)c3)CC2)c1  -6.48%
9. O=C(O)c1ccc(CN2CCCCCC2)cc1  -6.21%
10. CCOC(=O)N1CCN(CC(O)COc2ccc(Cl)cc2C)CC1 (stereo not shown)  -6.2%
11. Cc1cc2ccccc2n1CCNC(=O)C(C)(C)C  -6.14%
12. O=C1CC(c2ccc(O)cc2)C2=C(CC(c3ccccc3Cl)CC2=O)N1 (stereo not shown)  -6.14%
13. CCC(C)[C@H](NC(=O)OCc1ccccc1)C(=O)N[C@@H](CCc1ccccc1)C(=O)CNS(=O)(=O)c1ccc2oc3ccccc3c2c1 (stereo partly shown)  -5.64%
14. COc1ccc2[nH]c3c(O)ncnc3c2c1  -5.48%
15. CC(=O)N(C)c1ccc(NC(=O)c2cccs2)cc1  -5.41%
16. CC1=C(C(=O)Nc2ccc(Cl)cc2)C(c2ccc(O)cc2)NC(S)=N1 (stereo not shown)  -5.28%
17. CN1CCC(NCc2cccc(Br)c2)CC1  -5.11%
18. CCC(C)NC(=O)c1cc(-c2ccccc2F)no1 (stereo not shown)  -5.11%
19. O/N=C1\CCCc2c1[nH]c1ccc(C3CCCCC3)cc21  -4.61%
20. Cc1ccc(S(=O)(=O)Nc2nc(C)cc(C)n2)cc1  -4.61%
21. Cc1nc(Nc2nc3ccccc3o2)nc(C)c1C(=O)Nc1ccc(F)cc1  -4.52%
22. COc1ccc2nc(NC(=O)c3cc(C)oc3C)sc2c1  -4.38%
23. O=C(Cn1ncc2c1-c1ccccc1OC2)N(Cc1ccco1)C1CCCCC1  -4.21%
24. Cc1ccc(CN(C(=S)NCC(=O)N2CCCC2)C2CCCCC2)cc1  -4.06%
25. COC(=O)c1sc(NC(=O)c2ccccc2C)nc1C  -3.75%
26. CN(C)c1cc(NC(=O)CN2CCCCC2)c2ccccc2n1  -3.74%
27. O=C(Nc1ccc(Cl)cc1)c1ccccc1Br  -3.71%
28. C=CCN1CC(c2nc3ccccc3n2CC(C)C)CC1=O (stereo not shown)  -3.49%
29. CCC(=O)N1CCN(c2ccccc2F)CC1  -3.45%
30. CCN1CCC(NC2CCCC(C)C2C)CC1 (stereo not shown)  -3.27%
31. O=C(CCCOc1ccccc1)Nc1ccccc1Cl  -3.24%
32. Cc1ccccc1OCCCCCc1c(C)n[nH]c1C  -3.15%
33. CC(NC(=O)c1cc2c(s1)CSC2)c1ccccc1 (stereo not shown)  -3.1%
34. COc1ccc(Br)cc1CN1CCN(C(=O)c2cccnc2)CC1  -2.94%
35. CCOC(=O)N1CCN(C(=O)c2c(-c3ccccc3Cl)noc2C)CC1  -2.87%
36. CCOc1ccc(Nc2nc(N)nc(CN3CCCCCC3)n2)cc1  -2.76%
37. Cc1cccc(N2C(=O)NC(=O)/C(=C/NC34CN5CN(CN(C5)C3)C4)C2=O)c1  -2.54%
38. CC(C)(C)NC(=O)c1ccc2c3c(onc13)-c1ccccc1C2=O  -2.41%
39. CCOCCCNc1nc2ccccc2n2c(C)nnc12  -2.27%
40. COC(=O)C1=C(N)n2c(s/c(=C\c3cccnc3)c2=O)=C(C(=O)OC)C1c1cccnc1 (stereo not shown)  -1.84%
41. COc1cc(NS(=O)(=O)c2ccc(NC(=O)c3ccco3)cc2)nc(OC)n1  -1.53%
42. O=C(CN1C(=O)S/C(=C/c2ccccc2)C1=O)N1CCN(c2ccccc2)CC1  -1.44%
43. Cc1ccc(C)c(N(CC(=O)N2CCN(Cc3ccccc3)CC2)S(=O)(=O)c2ccccc2)c1  -1.43%
44. COc1ccc(NC(=O)c2nn(C)cc2Cl)c(OC)c1  -1.06%
45. CC(C)c1ccc(/C=C(\C#N)c2nn(CCO)c(N)c2C#N)cc1  -1.03%
46. Oc1nc(S)nc(O)c1C/C=C/c1ccccc1  -0.906%
47. O=C(Nc1ccccc1F)c1onc2c1CCCC2  -0.884%
48. COc1ccccc1CCSc1nc(O)c2ccccc2n1  -0.865%
49. CCOc1ccc(/C=C/c2nc(C#N)c(NCCCn3ccnc3)o2)cc1  -0.808%
50. Cc1cc(C)cc(N2C(=O)c3ccccc3C2=O)c1  -0.546%
51. CCOc1ccc(-c2cc(C(=O)NCCN(CC)CC)c3ccccc3n2)cc1  -0.519%
52. COc1ccccc1/C=C/C(=O)Nc1nc2nccc(-c3ccccc3)n2n1  -0.386%
53. COc1cc(OC)c(OC)cc1/C=N/n1c(C)nnc1C  -0.339%
54. CCOCCC/N=C/c1c(O)[nH]c2ccccc12  -0.169%
55. O=c1c2cc(-c3ccccc3)sc2nc2c3ccccc3cnn12  0.147%
56. COC(=O)C1=CN(Cc2ccc(OC)cc2)C=C(C(=O)OC)C1c1cccc(OC)c1OC  0.219%
57. CN(CC(=O)NC1CCN(Cc2ccccc2)CC1)S(=O)(=O)c1cccc2nsnc12  0.317%
58. O=C(c1ccccc1)N1CCN(C(=O)c2cccc(COc3ccc4c(c3)CCC4)c2)CC1  0.413%
59. COC(=O)C1=C(C)N(Cc2ccc(C)cc2)C(=O)/C1=C\c1ccc(OC)cc1OC  0.484%
60. Cc1ccc(CCNC(=O)C23C[C@H]4C[C@@H](C2)CC(n2nnc(C)n2)(C4)C3)cc1  0.738%
61. O=C(Nc1nccs1)c1ccc(COc2ccc(Br)cc2)cc1  0.909%
62. Cc1c(C(=O)N(C)c2cccc(C(F)(F)F)c2)cnn1-c1ccccc1  1.17%
63. CCOc1cc(/C=C2/NC(=S)NC2=O)cc(Br)c1O  1.26%
64. O=C(NCc1ccc2c(c1)OCO2)c1nnc(Cc2ccc(F)cc2)o1  1.3%
65. COc1cc(OC)cc(-n2nnc(-c3nc(-c4ccc(C)cc4)no3)c2N)c1  1.4%
66. CC[C@H](NC(=O)[C@H](CC1CCCC1)NC1=NS(=O)(=O)c2ccccc21)C(=O)c1nc2ccccc2o1  1.61%
67. COc1ccc(C2=NOC(C(=O)N3CCC4(CC3)OCCO4)C2)cc1 (stereo not shown)  1.62%
68. Cc1ccc(S(=O)(=O)N(CC(=O)NCC2CCCO2)c2ccc(Cl)cc2C)cc1 (stereo not shown)  1.62%
69. CC(O)CSc1nc2c(c(=O)[nH]c(=O)n2C)n1C(C)C (stereo not shown)  1.67%
70. Cc1ccccc1CNC(=O)Cc1cccs1  1.68%
71. COc1cccc(S(=O)(=O)Nc2ccc(C(=O)N3CCN(C(=O)c4ccco4)CC3)cc2)c1  2.17%
72. CCOc1ccc(CCNC(=O)c2sc3nc(C)cc(COC)c3c2N)cc1OCC  2.5%
73. CC(=O)c1cc2c(cc1NC(=O)COc1ccccc1C)OCO2  2.5%
74. O=C(O)Cc1cc(O)n(-c2nc3ccccc3s2)n1  2.7%
75. Cc1cc(C(F)(F)F)nn1CC(=O)Nc1sc2c(c1C#N)CCCCC2  2.76%
76. O=C(Nc1ccc(-c2ccc(Cl)cc2)cc1)c1sc2ccccc2c1Cl  3.05%
77. CC(=O)N1N=C(c2ccccc2)CC1c1ccccc1[N+](=O)[O-] (stereo not shown)  3.16%
78. CCOC(=O)N1CCN(Cc2c(F)cccc2Cl)CC1  3.24%
79. CC(C)C(=O)Nc1nc(-c2ccc(S(=O)(=O)N3CCOCC3)cc2)cs1  3.29%
80. Cc1nn(CCCC(=O)NCCC2=CCCCC2)c(=O)c2cc3sccc3n12  3.4%
81. COc1cccc(/C=C2\NC(=O)N(Cc3ccc(F)cc3)C2=O)c1OC(C)C  3.5%
82. Cc1sc2ncn(CC(=O)NCCCC(=O)N(C)CCc3ccccn3)c(=O)c2c1C  3.54%
83. COc1cc(C=O)ccc1OC1=NS(=O)(=O)c2ccccc21  3.66%
84. Cc1ccc(OCC(=O)N2CCCC2)c(Br)c1  3.83%
85. C=CCSc1nc2c(c(=O)[nH]c(=O)n2C)n1CCC(C)C  4.09%
86. O=c1ccc2ccc(OCc3ccc(F)cc3)cc2o1  4.57%
87. Cc1ccc(OCC(=O)Nc2ccc(C(C)C)cc2)c(Br)c1  5.09%
88. Cc1ccc(-n2nc(C)c(/C=N/c3ccc(C(=O)N4CCOCC4)cc3)c2O)cc1C  5.58%
89. C=CCNC(=O)CN(c1cccc(Cl)c1C)S(=O)(=O)c1ccccc1  5.99%
90. CCOc1cc(C(=O)C(=O)c2ccc(OC)c(OCC)c2)ccc1OC  6.08%
91. COCCN1C(=O)c2ccccc2C(C(=O)Nc2cccnc2)C1c1cccs1 (stereo not shown)  6.64%
92. O=C1CCCC2=C1C(c1ccc(C(F)(F)F)cc1)C1=C(O)c3ccccc3C1=N2 (stereo not shown)  6.96%
93. Cc1ccc(-c2nnc(S)n2/N=C/c2ccc(C(=O)O)cc2)cc1  7.26%
94. O=C(Cn1ncc2c3ccccc3nc-2c1O)N1CCC(N2CCCCC2)CC1  8.03%
95. O=C1CCCN2N=C(SCc3cccc(C(F)(F)F)c3)SC2=N1  8.84%
96. COc1ccc(CNC2C3CC4CC(C3)CC2C4)c(OC)c1C (stereo not shown)  9.88%
97. Cc1ccccc1CNCc1c(C(=O)O)c(C)n(Cc2cccc(Cl)c2)c1C  11.5%
98. COc1cc(OC)c(OC)cc1CN1CCN(Cc2ccccc2Cl)CC1  12.7%
99. COc1ccc(-c2cc(C(F)(F)F)nc(SCC(=O)Nc3cn(C)nc3C)n2)cc1OC  26.2%
100. COc1ccc(C(=O)CN2CCN(CCN3C(=O)c4cccc5cccc(c45)C3=O)CC2)cc1  29%
